Reference: the supplement of paper PMC10369915
Some of the results follow. No stated cut-off is given here; in the data, active = 3.2 or more and inactive = the rest. Only a few entries rise above the background.

B1: TKTL1_Y318_D315N (peptide)
chain: DGNTRYSTFSE
B2: TLK2_Y259_R262Q (peptide)
chain: KMLEKYKEQLN
B3: TMED1_Y103 (peptide)
chain: TEAGDYKLCFD
B4: TMED1_Y103_D102N (peptide)
chain: TEAGNYKLCFD
B5: TMED3_Y85_D86N_YF (peptide)
chain: ETKKQYNSFTF
B6: TMED3_Y85_YF (peptide)
chain: ETKKQYDSFTF
B7: TMEM130_Y412 (peptide)
chain: ETPSEYLEIVR
B8: TMEM159_Y159 (peptide)
chain: EFEGLYQEGGG
B9: TMEM159_Y159_E154D (peptide)
chain: DFEGLYQEGGG
B10: TMEM230_Y110 (peptide)
chain: KGYRGYSYDDI
B11: TMEM230_Y112_YF (peptide)
chain: FRGFSYDDIPD
B12: TMEM230_Y29 (peptide)
chain: STDDGYIDLQF
B13: TMEM230_Y29_Y29C (peptide)
chain: STDDGCIDLQF
B14: TMEM240_Y77 (peptide)
chain: DASENYFVTDS
B15: TMEM43_Y233 (peptide)
chain: SENPKYPEVGD
B16: TMEM87B_Y460 (peptide)
chain: ANNQRYAFMPL
B17: TMPO_Y127_Y127H (peptide)
chain: DQLVKHGVNPG
B18: TMPRSS12_Y23_Y19H (peptide)
chain: LHSDHYSPSGR
B19: TNC_Y1775_V1773M (peptide)
chain: IPGMEYLVSII

Target: SHP2 C-SH2 domain E139D
Assay: enrichment score (SH2-bound / input frequency) (ratio); bacterial display of known human phosphotyrosine sites (pTyr-Var adds point mutants) read by sequencing; higher = stronger binding; tyrosines were phosphorylated by kinases first
Settings: peptide library: pTyr-Var
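Further: displayed peptides selected on beads carrying the immobilized SH2 domain, with library peptides lacking any tyrosine serving as negative controls.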

Enrichment score, inactive:
B1 0.588
B2 1.09
B3 0.759
B4 0.618
B5 0.589
B6 0.678
B7 0.974
B8 0.714
B9 0.719
B10 0.827
B11 1.02
B12 0.787
B13 0.476
B14 0.716
B15 0.657
B16 0.92
B17 0.692
B18 0.944
B19 1.14

Target: SHP2 C-SH2 domain wild-type
Assay: as above
Settings: peptide library: pTyr-Var

Enrichment score, inactive:
B1 0.702
B2 1.22
B3 1.01
B4 0.583
B5 0.688
B6 0.633
B7 0.816
B8 0.651
B9 0.678
B10 0.848
B11 0.77
B12 0.612
B13 0.411
B14 0.524
B15 0.529
B16 0.803
B17 0.821
B18 0.9
B19 1.48

Target: SHP2 N-SH2 domain L43F
Assay: as above
Settings: peptide library: pTyr-Var

Enrichment score, inactive:
B1 0.686
B2 1.32
B3 0.862
B4 0.526
B5 0.652
B6 0.686
B7 1.05
B8 0.873
B9 0.775
B10 0.825
B11 0.971
B12 1.46
B13 0.599
B14 0.605
B15 0.748
B16 0.733
B17 0.838
B18 1.05
B19 1.18

Target: SHP2 N-SH2 domain T42A
Assay: as above
Settings: peptide library: pTyr-Var

Enrichment score, inactive:
B1 0.599
B2 0.929
B3 0.716
B4 0.521
B5 0.827
B6 0.492
B7 0.734
B8 0.747
B9 0.722
B10 0.817
B11 0.998
B12 2.02
B13 0.435
B14 0.442
B15 0.767
B16 0.674
B17 0.687
B18 0.746
B19 1.08

Target: SHP2 N-SH2 domain T52S
Assay: as above
Settings: peptide library: pTyr-Var

Enrichment score, inactive:
B1 0.708
B2 1.04
B3 0.648
B4 0.533
B5 0.66
B6 0.546
B7 0.943
B8 0.871
B9 0.571
B10 0.796
B11 1.05
B12 1.9
B13 0.521
B14 0.511
B15 0.597
B16 0.764
B17 0.917
B18 0.969
B19 1.32

Target: SHP2 N-SH2 domain wild-type
Assay: as above
Settings: peptide library: pTyr-Var

Enrichment score, inactive:
B1 0.752
B2 0.896
B3 1.12
B4 0.639
B5 0.787
B6 0.886
B7 0.948
B8 0.954
B9 0.634
B10 1
B11 1.01
B12 0.956
B13 0.587
B14 0.653
B15 0.646
B16 0.885
B17 0.812
B18 1.04
B19 1.13
